The source of these data is article PMC4336329 (PLoS ONE, 2015).

In all, about 310,000 compounds went through this assay and about 2,200 (0.71%) showed an effect of 50% or more. Effects have a minus sign here. The list shows a part of the results.

For this experiment, the target named is human ether-à-go-go-related gene (hERG) potassium channel (human, UniProt Q12809). The experiment in a line: primary screen, population patch clamp on CHO cells stably expressing hERG.
Sequence of human ether-à-go-go-related gene (hERG) potassium channel (Q12809 whole entry, looked up): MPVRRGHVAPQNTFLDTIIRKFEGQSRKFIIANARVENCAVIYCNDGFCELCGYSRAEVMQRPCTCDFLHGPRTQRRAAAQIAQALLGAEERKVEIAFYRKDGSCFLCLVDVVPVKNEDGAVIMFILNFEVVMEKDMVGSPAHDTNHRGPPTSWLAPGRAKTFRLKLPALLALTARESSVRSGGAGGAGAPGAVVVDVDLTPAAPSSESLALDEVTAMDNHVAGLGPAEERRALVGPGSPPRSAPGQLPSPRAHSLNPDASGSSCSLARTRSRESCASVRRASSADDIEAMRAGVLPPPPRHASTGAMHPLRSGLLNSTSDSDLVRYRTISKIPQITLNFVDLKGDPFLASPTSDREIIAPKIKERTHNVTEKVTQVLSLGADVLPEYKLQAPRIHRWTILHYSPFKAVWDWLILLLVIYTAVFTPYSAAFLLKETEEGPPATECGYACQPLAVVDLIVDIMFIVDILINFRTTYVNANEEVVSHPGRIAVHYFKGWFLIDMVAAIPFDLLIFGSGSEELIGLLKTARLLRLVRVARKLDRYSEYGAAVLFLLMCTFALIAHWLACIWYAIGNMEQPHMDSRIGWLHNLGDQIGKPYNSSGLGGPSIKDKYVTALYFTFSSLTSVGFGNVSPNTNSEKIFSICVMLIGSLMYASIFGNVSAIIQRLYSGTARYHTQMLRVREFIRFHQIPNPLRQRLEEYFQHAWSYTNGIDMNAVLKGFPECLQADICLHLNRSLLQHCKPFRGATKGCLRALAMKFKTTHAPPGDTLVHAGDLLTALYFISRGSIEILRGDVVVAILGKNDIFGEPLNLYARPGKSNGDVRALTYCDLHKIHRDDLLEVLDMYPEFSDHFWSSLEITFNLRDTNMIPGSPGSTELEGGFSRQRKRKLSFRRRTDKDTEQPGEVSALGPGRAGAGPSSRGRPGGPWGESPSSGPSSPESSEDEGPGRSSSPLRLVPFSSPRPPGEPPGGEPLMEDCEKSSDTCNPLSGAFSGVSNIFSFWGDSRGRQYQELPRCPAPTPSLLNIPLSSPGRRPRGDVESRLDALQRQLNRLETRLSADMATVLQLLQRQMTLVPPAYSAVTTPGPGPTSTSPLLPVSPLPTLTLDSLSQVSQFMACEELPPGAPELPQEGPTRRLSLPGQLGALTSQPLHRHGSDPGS
In the case of `Cc1ccc(C(=O)OCc2cn3ccccc3n2)cc1`, the “hERG current change (%, negative = inhibition) at 1uM” value is reported as 1.89%.

Consider `Cc1n[nH]c(C)c1CCCCOc1ccccc1[N+](=O)[O-].O=C(O)C(=O)O`, for which the “hERG current change (%, negative = inhibition) at 1uM” value was 13.3%.

Regarding `CCCCn1c(NC(=O)C2CCCCC2)nc2ccccc21`, the “hERG current change (%, negative = inhibition) at 1uM” value stood at 8.06%.

As to `O=C(NCCCN=C1NS(=O)(=O)c2ccccc21)c1ccc(S(=O)(=O)N2CCCCC2)cc1`, the “hERG current change (%, negative = inhibition) at 1uM” value is recorded as 0.873%.

Take `O=C(Nc1ccccc1F)Oc1cccc(OC(=O)Nc2ccccc2F)c1`: the “hERG current change (%, negative = inhibition) at 1uM” value was determined as 15.1%.

`Cc1ccc(C)c(-n2cc(CN3CCN(C(=O)c4ncn[nH]4)CC3)c(-c3ccccc3)n2)c1`: the “hERG current change (%, negative = inhibition) at 1uM” value is listed as -0.306%.

`O=C1NC(c2ccccc2)=CC(c2ccccc2O)N1` (stereo not shown): the “hERG current change (%, negative = inhibition) at 1uM” value amounted to 3.34%.

On to `COc1ccc(C(=O)NCc2nnc(SCC(=O)Nc3cccc(C(F)(F)F)c3)o2)cc1OC`, for which the “hERG current change (%, negative = inhibition) at 1uM” value was found to be 14.1%.

In the case of `COc1ccccc1NC(=O)COC(=O)c1ccccc1C(=O)N1CCN(c2ccccc2)CC1`, the “hERG current change (%, negative = inhibition) at 1uM” value is recorded as 10.2%.

In the case of `Cc1ccc(N2CC(=O)N(CC(=O)O)C2=O)cc1`, the “hERG current change (%, negative = inhibition) at 1uM” value came to 14.3%.

For `CC(C)N=C1SC(CC(=O)Nc2ccccc2)C(=O)N1C(C)C` (stereo not shown), the “hERG current change (%, negative = inhibition) at 1uM” value is -6.76%.

As for `CCOc1ccccc1NC(=O)CCS(=O)(=O)c1ccc(OC)cc1`, the “hERG current change (%, negative = inhibition) at 1uM” value came to 13.6%.

On to `COc1ccccc1N(CC(=O)N1CCC(C(N)=O)CC1)S(=O)(=O)c1ccccc1`, for which the “hERG current change (%, negative = inhibition) at 1uM” value came to 16.6%.

Turning to `CCCCNc1cc(=O)n(C)c(=O)[nH]1`, the “hERG current change (%, negative = inhibition) at 1uM” value is 8.93%.

For `CC(C)CN(C(=O)c1cccc([N+](=O)[O-])c1)c1c(N)n(CC(C)C)c(=O)[nH]c1=O`, the “hERG current change (%, negative = inhibition) at 1uM” value is 12.2%.

For the compound `C=CCn1c(SCC(=O)NCC2CCCO2)nc2sc(C)c(C)c2c1=O` (stereo not shown), the “hERG current change (%, negative = inhibition) at 1uM” value was 9.34%.

As for `CCOC(=O)c1ccc(CNS(=O)(=O)c2c(C)ccc3nsnc23)o1`, the “hERG current change (%, negative = inhibition) at 1uM” value is given as 6.38%.

As for `Cc1cc(C)n2nc(SCc3ccccc3C(=O)O)nc2n1`, the “hERG current change (%, negative = inhibition) at 1uM” value came out at 11%.

`Cc1nnc(SCC(=O)c2ccc(C(C)C)cc2)s1`: the “hERG current change (%, negative = inhibition) at 1uM” value was determined as 12%.

`COc1cc(C(=O)Nc2c(C(=O)O)[nH]c3ccc(C)cc23)cc(OC)c1OC`: the “hERG current change (%, negative = inhibition) at 1uM” value is 10.6%.

In the case of `COc1ccc(OC)c(C(=O)CSc2nc3ncccc3[nH]2)c1`, the “hERG current change (%, negative = inhibition) at 1uM” value is recorded as 14.1%.

Consider `C/C(=N\Nc1nnc2c3ccccc3n(C)c2n1)c1ccc(C)o1`, for which the “hERG current change (%, negative = inhibition) at 1uM” value is listed as -35.3%.

Regarding `Cc1cccc(N2C(=O)CS/C2=N\NC(=O)c2cccnc2)c1C`, the “hERG current change (%, negative = inhibition) at 1uM” value worked out at 10.2%.

`O=C1C=C(NCc2ccc(Cl)cc2)CCC1`: the “hERG current change (%, negative = inhibition) at 1uM” value is reported as -8.04%.

In the case of `Cc1ccc(C)c(C(=O)COC(=O)C(C)N2C(=O)C3C4CCC(C4)C3C2=O)c1` (stereo not shown), the “hERG current change (%, negative = inhibition) at 1uM” value turned out to be 14.5%.
